This note sets out measurements from the supplement of paper PMC8007513.

Where a name gives a salt, the structure may show the parent alone. ± gives the standard error. Out of some 1,300 compounds screened, about 130 (10%) showed an effect of 50% or more. The list shows a part of the results, in another mix than the full data.

In this test the test system is Trichoderma virens ATCC 9645. Put plainly: growth yield (OD600) with compound + IPBC relative to untreated control; higher = less growth inhibition. To be noted: compound concentration: 100 uM, IPBC concentration: 200 ng/ml. In short, it runs like this: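 Plates were read for OD600 at 40 h and 72 h after Trichoderma virens ATCC 9645 spores (15,000 spores ml^−1 in potato dextrose broth) were grown at 30 °C with library compounds at 100 μM final, with or without a biocide at 200 ng ml^−1. Growth is stated relative to the control with neither agent, as the mean of duplicate screens.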

On to `O=C(CCCCCCC(=O)Nc1ccccc1)NO` [Vorinostat] + CCCCNC(=O)OCC#CI [3-iodo-2-propynyl butylcarbamate (IPBC)], for which the growth yield stood at 107 ± 9.5% (40 h) and 99.5 ± 3.9% (72 h).
For `COC(=O)C1=C(C)NC(C)=C(C(=O)OC2CCCN(Cc3ccccc3)C2)C1c1cccc([N+](=O)[O-])c1` (configuration not stated) [Benidipine hydrochloride] + CCCCNC(=O)OCC#CI [3-iodo-2-propynyl butylcarbamate (IPBC)] the same measures were 87.2 ± 17% and 104 ± 12%.
For the molecule `CC1(C)S[C@@H]2[C@H](NC(=O)[C@H](C(=O)O)c3ccsc3)C(=O)N2[C@H]1C(=O)O` [Ticarcillin sodium] + CCCCNC(=O)OCC#CI [3-iodo-2-propynyl butylcarbamate (IPBC)], the growth yield (40 h) came out at 89.9 ± 3.2% and the growth yield (72 h) worked out at 92.2 ± 2.2%.
On to `Cc1cc(NS(=O)(=O)c2ccc(N)cc2)no1` [Sulfamethoxazole] + CCCCNC(=O)OCC#CI [3-iodo-2-propynyl butylcarbamate (IPBC)], for which the growth yield (40 h) was 45.6 ± 1.1%.
Turning to `O=C1CN(/N=C/c2ccc(-c3ccc([N+](=O)[O-])cc3)o2)C(=O)N1` [Dantrolene sodium salt] + CCCCNC(=O)OCC#CI [3-iodo-2-propynyl butylcarbamate (IPBC)], the growth yield reads like this: (40 h) 103 ± 3.8%; (72 h) 104 ± 3.1%.
Take `CCOC(=O)n1ccn(C)c1=S` [Carbimazole] + CCCCNC(=O)OCC#CI [3-iodo-2-propynyl butylcarbamate (IPBC)]: the growth yield came to 76.72 ± 0.16% (40 h) and 78.1 ± 0.94% (72 h).
As for `C[C@H](N)[C@H](O)c1cccc(O)c1` [Metaraminol bitartrate] + CCCCNC(=O)OCC#CI [3-iodo-2-propynyl butylcarbamate (IPBC)], the growth yield (40 h) stood at 86.25 ± 0.48% and the growth yield (72 h) came out at 94.6 ± 0.42%.
For `O=C1CN(/N=C/c2ccc([N+](=O)[O-])o2)C(=O)N1` [Nitrofurantoin] + CCCCNC(=O)OCC#CI [3-iodo-2-propynyl butylcarbamate (IPBC)], the growth yield is, setting by setting: (40 h) 88.6 ± 4.1%; (72 h) 98.4 ± 2.3%.
On to `OCCN(CCO)c1nc(N2CCCCC2)c2nc(N(CCO)CCO)nc(N3CCCCC3)c2n1` [Dipyridamole] + CCCCNC(=O)OCC#CI [3-iodo-2-propynyl butylcarbamate (IPBC)], for which the growth yield worked out at 44.5 ± 1.6% (40 h) and 57.37 ± 0.52% (72 h).
For `O=C(O)c1ccccc1C(=O)Nc1ccc(S(=O)(=O)Nc2nccs2)cc1` [Phthalylsulfathiazole] + CCCCNC(=O)OCC#CI [3-iodo-2-propynyl butylcarbamate (IPBC)] the same measures were 99.9 ± 14% and 101 ± 8.7%.
Regarding `O=C([O-])c1ccccc1-c1c2cc(Br)c(=O)cc-2oc2[c]([Hg+])c([O-])c(Br)cc12.[Na+].[Na+].[OH-]` [Merbromin] + CCCCNC(=O)OCC#CI [3-iodo-2-propynyl butylcarbamate (IPBC)], the growth yield was 5.4 ± 0.64% (40 h) and 3.99 ± 0.21% (72 h).
The like results for `CC(C)[N+](C)(CCC(C(N)=O)(c1ccccc1)c1ccccc1)C(C)C` [Isopropamide iodide] + CCCCNC(=O)OCC#CI [3-iodo-2-propynyl butylcarbamate (IPBC)] were, in that order, 104 ± 6.8% and 97.3 ± 5.7%.
Regarding `CC(C)CC(N(C)C)C1(c2ccc(Cl)cc2)CCC1` (configuration not stated) [Sibutramine hydrochloride] + CCCCNC(=O)OCC#CI [3-iodo-2-propynyl butylcarbamate (IPBC)], the growth yield (40 h) came to 76.7 ± 0.79% and the growth yield (72 h) worked out at 90.82 ± 0.42%.
On to `C[C@H](CCC(=O)O)[C@H]1CC[C@H]2[C@@H]3[C@@H](O)C[C@@H]4C[C@H](O)CC[C@]4(C)[C@H]3CC[C@]12C` [Urosiol] + CCCCNC(=O)OCC#CI [3-iodo-2-propynyl butylcarbamate (IPBC)], for which the growth yield (40 h) was determined as 104 ± 12% and the growth yield (72 h) was 99.7 ± 5.1%.
As to `C#C[C@]1(O)CC[C@H]2[C@@H]3CCC4=CCCC[C@@H]4[C@H]3CC[C@@]21C` [Lynestrenol] + CCCCNC(=O)OCC#CI [3-iodo-2-propynyl butylcarbamate (IPBC)], the growth yield was 72.11 ± 0.64% (40 h) and 86.6 ± 1.5% (72 h).
For the molecule `O=C(CCCN1CCN(c2ccccn2)CC1)c1ccc(F)cc1` [Azaperone] + CCCCNC(=O)OCC#CI [3-iodo-2-propynyl butylcarbamate (IPBC)], the growth yield reads like this: (40 h) 96.6 ± 9.5%; (72 h) 101 ± 4.5%.
`NC[C@@H]1O[C@@H](O[C@H]2[C@H](O)[C@@H](O[C@H]3O[C@H](CO)[C@@H](O)[C@H](N)[C@H]3O)[C@H](N)C[C@@H]2N)[C@@H](O)[C@H](O)[C@H]1O` [Kanamycin A sulfate] + CCCCNC(=O)OCC#CI [3-iodo-2-propynyl butylcarbamate (IPBC)]: the growth yield (40 h) stood at 87.2 ± 9.4% and the growth yield (72 h) was determined as 93.4 ± 4.7%.
With `COC(=O)C1=C(C#N)NC(C)=C(C(=O)OC(C)C)C1c1cccc([N+](=O)[O-])c1` (configuration not stated) [Nilvadipine] + CCCCNC(=O)OCC#CI [3-iodo-2-propynyl butylcarbamate (IPBC)], the growth yield (40 h) turned out to be 107.2 ± 0.16% and the growth yield (72 h) amounted to 102 ± 2.5%.
With `CC1CC(OC(=O)c2ccccc2O)CC(C)(C)C1` (configuration not stated) [Homosalate] + CCCCNC(=O)OCC#CI [3-iodo-2-propynyl butylcarbamate (IPBC)], the growth yield was 87.5 ± 9.7% (40 h) and 91.9 ± 6.9% (72 h).
On to `CC[C@@H]1C(=O)OC[C@@H]1Cc1cncn1C` [Pilocarpine nitrate] + CCCCNC(=O)OCC#CI [3-iodo-2-propynyl butylcarbamate (IPBC)], for which the growth yield runs as follows: (40 h) 83.2%; (72 h) 92.92 ± 0.21%.
For `CC(C)NC[C@@H](O)COc1ccc(CC(N)=O)cc1` [(R)-(+)-Atenolol] + CCCCNC(=O)OCC#CI [3-iodo-2-propynyl butylcarbamate (IPBC)] the same measures were 101 ± 2.1% and 98.48 ± 0.52%.
The like results for `Cc1c(NC(=O)c2cccnc2)c(=O)n(-c2ccccc2)n1C` [Nifenazone] + CCCCNC(=O)OCC#CI [3-iodo-2-propynyl butylcarbamate (IPBC)] were, in that order, 83.23 ± 0.64% and 92.19 ± 0.1%.
Consider `CS(=O)(=O)OCCCCOS(C)(=O)=O` [Busulfan] + CCCCNC(=O)OCC#CI [3-iodo-2-propynyl butylcarbamate (IPBC)], for which the growth yield was 108 ± 1.1% (40 h) and 108 ± 2.9% (72 h).
For the molecule `S=C(NC1CCCCC1)N1CCC(c2cnc[nH]2)CC1` [Thioperamide maleate] + CCCCNC(=O)OCC#CI [3-iodo-2-propynyl butylcarbamate (IPBC)], the growth yield runs as follows: (40 h) 92.4 ± 4.5%; (72 h) 95.9 ± 2.3%.
With `COc1cccc2c1C(=O)c1c(O)c3c(c(O)c1C2=O)C[C@@](O)(C(C)=O)C[C@@H]3O[C@H]1C[C@H](N)[C@H](O)[C@H](C)O1` [Daunorubicin hydrochloride] + CCCCNC(=O)OCC#CI [3-iodo-2-propynyl butylcarbamate (IPBC)], the growth yield is, setting by setting: (40 h) 9.21 ± 1.6%; (72 h) 44.7 ± 1.3%.
For the molecule `C=CC1=C(C(=O)O)N2C(=O)[C@@H](NC(=O)/C(=N\O)c3csc(N)n3)[C@H]2SC1` [Cefdinir] + CCCCNC(=O)OCC#CI [3-iodo-2-propynyl butylcarbamate (IPBC)], the growth yield reads like this: (40 h) 102 ± 1.1%; (72 h) 102 ± 2.5%.
Consider `CCN(CC)CC(=O)Nc1c(C)cccc1C` [Lidocaine hydrochloride] + CCCCNC(=O)OCC#CI [3-iodo-2-propynyl butylcarbamate (IPBC)], for which the growth yield reads like this: (40 h) 90.06 ± 0.79%; (72 h) 91.5 ± 1.3%.
On to `CC(=O)OCC(=O)[C@@]12OC(C)(C)O[C@@H]1C[C@H]1[C@@H]3C[C@H](F)C4=CC(=O)C=C[C@]4(C)[C@@]3(F)[C@@H](O)C[C@@]12C` [Fluocinonide] + CCCCNC(=O)OCC#CI [3-iodo-2-propynyl butylcarbamate (IPBC)], for which the growth yield is, setting by setting: (40 h) 96.893 ± 1e-14%; (72 h) 95.3 ± 1.1%.
`c1ccc2c(CC3=NCCN3)cccc2c1` [Naphazoline hydrochloride] + CCCCNC(=O)OCC#CI [3-iodo-2-propynyl butylcarbamate (IPBC)]: the growth yield runs as follows: (40 h) 87 ± 1.9%; (72 h) 91.9%.
As to `COc1ccc2c(c1)[C@]13CCCC[C@@H]1[C@H](C2)N(C)CC3` [Dextromethorphan hydrobromide monohydrate] + CCCCNC(=O)OCC#CI [3-iodo-2-propynyl butylcarbamate (IPBC)], the growth yield (40 h) worked out at 76.6 ± 2.5% and the growth yield (72 h) stood at 90.8 ± 3.4%.
As to `CC1(C)S[C@@H]2[C@H](NC(=O)[C@H](N)c3ccccc3)C(=O)N2[C@H]1C(=O)O` [Ampicillin trihydrate] + CCCCNC(=O)OCC#CI [3-iodo-2-propynyl butylcarbamate (IPBC)], the growth yield by setting is: (40 h) 90.1 ± 7.2%; (72 h) 96.3 ± 7.5%.
As for `COc1ccc2cc([C@H](C)C(=O)O)ccc2c1` [(S)-Naproxen] + CCCCNC(=O)OCC#CI [3-iodo-2-propynyl butylcarbamate (IPBC)], the growth yield is 61.3 ± 1.9% (40 h) and 78.6 ± 1.1% (72 h).
For the molecule `C/C=C(/C(=C/C)c1ccc(O)cc1)c1ccc(O)cc1` [Dienestrol] + CCCCNC(=O)OCC#CI [3-iodo-2-propynyl butylcarbamate (IPBC)], the growth yield (40 h) is 94.8 ± 3.3% and the growth yield (72 h) amounted to 93.8 ± 2.3%.
For `O=C(O)c1ccccc1OP(=O)(O)O` [Fosfosal] + CCCCNC(=O)OCC#CI [3-iodo-2-propynyl butylcarbamate (IPBC)], the growth yield stood at 86.1 ± 7.9% (40 h) and 98.2 ± 5.9% (72 h).
Turning to `CC(=O)O[C@H]1C(=O)[C@@]2(C)[C@H]([C@H](OC(=O)c3ccccc3)[C@]3(O)C[C@H](OC(=O)[C@H](O)[C@@H](NC(=O)c4ccccc4)c4ccccc4)C(C)=C1C3(C)C)[C@]1(OC(C)=O)CO[C@@H]1C[C@@H]2O` [Paclitaxel] + CCCCNC(=O)OCC#CI [3-iodo-2-propynyl butylcarbamate (IPBC)], the growth yield by setting is: (40 h) 97.5 ± 1.9%; (72 h) 100 ± 1.3%.
Consider `COc1cccc2c1C(=O)c1c(O)c3c(c(O)c1C2=O)C[C@@](O)(C(=O)CO)C[C@@H]3O[C@H]1C[C@H](N)[C@@H](O)[C@H](C)O1` [Epirubicin hydrochloride] + CCCCNC(=O)OCC#CI [3-iodo-2-propynyl butylcarbamate (IPBC)], for which the growth yield (40 h) is 42.7 ± 0.48%.
Turning to `N/C(=N\C(=O)c1nc(Cl)c(N)nc1N)NCc1ccccc1` [Benzamil hydrochloride] + CCCCNC(=O)OCC#CI [3-iodo-2-propynyl butylcarbamate (IPBC)], the growth yield reads like this: (40 h) 81.5 ± 1.4%; (72 h) 94.28 ± 0.1%.
